Numbering of substitutions follows the chain as printed; changes in the protein carry UniProt numbers. The list shows a part of the results.
T1: RBFOX1 RRM (Homo sapiens, UniProt Q9NWB1 109-208)
T1 sequence: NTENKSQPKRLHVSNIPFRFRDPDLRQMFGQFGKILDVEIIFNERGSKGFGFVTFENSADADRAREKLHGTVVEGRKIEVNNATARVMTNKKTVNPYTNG

B1: CGGAUGG (DNA:RNA)
RNA: GGGAGACCGGAAUUCAGAUUGUCCCGGAUGGUUAAAUCCCGUCGUAGCCACCA
DNA 1: CAATCTGAATTCCGGTCTCCC
DNA 2: TGGTGGCTACGACGGGATT
B2: CUAACGG (DNA:RNA)
RNA: B1 RNA with G26U, G27A, U29C
DNA 1: CAATCTGAATTCCGGTCTCCC
DNA 2: TGGTGGCTACGACGGGATT
B3: GACCAAG (DNA:RNA)
RNA: B1 RNA with C25G, G26A, G27C, A28C, U29A, G30A
DNA 1: CAATCTGAATTCCGGTCTCCC
DNA 2: TGGTGGCTACGACGGGATT
B4: AUGUAUA (DNA:RNA)
RNA: B1 RNA with C25A, G26U, A28U, U29A, G30U, G31A
DNA 1: CAATCTGAATTCCGGTCTCCC
DNA 2: TGGTGGCTACGACGGGATT
B5: AUUCCUG (DNA:RNA)
RNA: B1 RNA with C25A, G26U, G27U, A28C, U29C, G30U
DNA 1: CAATCTGAATTCCGGTCTCCC
DNA 2: TGGTGGCTACGACGGGATT
B6: CCCUUCU (DNA:RNA)
RNA: B1 RNA with G26C, G27C, A28U, G30C, G31U
DNA 1: CAATCTGAATTCCGGTCTCCC
DNA 2: TGGTGGCTACGACGGGATT
B7: CAUUCAU (DNA:RNA)
RNA: B1 RNA with G26A, G27U, A28U, U29C, G30A, G31U
DNA 1: CAATCTGAATTCCGGTCTCCC
DNA 2: TGGTGGCTACGACGGGATT
B8: UUGUACA (DNA:RNA)
RNA: B1 RNA with C25U, G26U, A28U, U29A, G30C, G31A
DNA 1: CAATCTGAATTCCGGTCTCCC
DNA 2: TGGTGGCTACGACGGGATT
B9: CCAGAGA (DNA:RNA)
RNA: B1 RNA with G26C, G27A, A28G, U29A, G31A
DNA 1: CAATCTGAATTCCGGTCTCCC
DNA 2: TGGTGGCTACGACGGGATT
B10: GCGAUGC (DNA:RNA)
RNA: B1 RNA with C25G, G26C, G31C
DNA 1: CAATCTGAATTCCGGTCTCCC
DNA 2: TGGTGGCTACGACGGGATT
B11: GUGGUCA (DNA:RNA)
RNA: B1 RNA with C25G, G26U, A28G, G30C, G31A
DNA 1: CAATCTGAATTCCGGTCTCCC
DNA 2: TGGTGGCTACGACGGGATT
B12: UAGAGCC (DNA:RNA)
RNA: B1 RNA with C25U, G26A, U29G, G30C, G31C
DNA 1: CAATCTGAATTCCGGTCTCCC
DNA 2: TGGTGGCTACGACGGGATT
B13: GAUGGAG (DNA:RNA)
RNA: B1 RNA with C25G, G26A, G27U, A28G, U29G, G30A
DNA 1: CAATCTGAATTCCGGTCTCCC
DNA 2: TGGTGGCTACGACGGGATT
B14: UAGACGC (DNA:RNA)
RNA: B1 RNA with C25U, G26A, U29C, G31C
DNA 1: CAATCTGAATTCCGGTCTCCC
DNA 2: TGGTGGCTACGACGGGATT
B15: AUGUACC (DNA:RNA)
RNA: B1 RNA with C25A, G26U, A28U, U29A, G30C, G31C
DNA 1: CAATCTGAATTCCGGTCTCCC
DNA 2: TGGTGGCTACGACGGGATT
B16: GCAGGUC (DNA:RNA)
RNA: GGGAGACCGGAAUUCAGAUUGUCCGCAGGUCUUAAAUCCCGUCGUAGCCACCA
DNA 1: CAATCTGAATTCCGGTCTCCC
DNA 2: TGGTGGCTACGACGGGATT
B17: UUUAGUG (DNA:RNA)
RNA: B1 RNA with C25U, G26U, G27U, U29G, G30U
DNA 1: CAATCTGAATTCCGGTCTCCC
DNA 2: TGGTGGCTACGACGGGATT
B18: UCAGCUU (DNA:RNA)
RNA: B16 RNA with G25U, G29C, C31U
DNA 1: CAATCTGAATTCCGGTCTCCC
DNA 2: TGGTGGCTACGACGGGATT
B19: AGUAACC (DNA:RNA)
RNA: B1 RNA with C25A, G27U, U29A, G30C, G31C
DNA 1: CAATCTGAATTCCGGTCTCCC
DNA 2: TGGTGGCTACGACGGGATT
B20: CUGGUUU (DNA:RNA)
RNA: B1 RNA with G26U, A28G, G30U, G31U
DNA 1: CAATCTGAATTCCGGTCTCCC
DNA 2: TGGTGGCTACGACGGGATT
B21: AACCGGU (DNA:RNA)
RNA: B1 RNA with C25A, G26A, G27C, A28C, U29G, G31U
DNA 1: CAATCTGAATTCCGGTCTCCC
DNA 2: TGGTGGCTACGACGGGATT
B22: GCAUACC (DNA:RNA)
RNA: B16 RNA with G28U, G29A, U30C
DNA 1: CAATCTGAATTCCGGTCTCCC
DNA 2: TGGTGGCTACGACGGGATT
B23: UACAAAU (DNA:RNA)
RNA: B1 RNA with C25U, G26A, G27C, U29A, G30A, G31U
DNA 1: CAATCTGAATTCCGGTCTCCC
DNA 2: TGGTGGCTACGACGGGATT
B24: GUUAUAA (DNA:RNA)
RNA: B1 RNA with C25G, G26U, G27U, G30A, G31A
DNA 1: CAATCTGAATTCCGGTCTCCC
DNA 2: TGGTGGCTACGACGGGATT
B25: AGGAUAG (DNA:RNA)
RNA: B1 RNA with C25A, G30A
DNA 1: CAATCTGAATTCCGGTCTCCC
DNA 2: TGGTGGCTACGACGGGATT
B26: GCACACG (DNA:RNA)
RNA: B16 RNA with G28C, G29A, U30C, C31G
DNA 1: CAATCTGAATTCCGGTCTCCC
DNA 2: TGGTGGCTACGACGGGATT
B27: CAUCUCU (DNA:RNA)
RNA: B1 RNA with G26A, G27U, A28C, G30C, G31U
DNA 1: CAATCTGAATTCCGGTCTCCC
DNA 2: TGGTGGCTACGACGGGATT
B28: GGGUUAU (DNA:RNA)
RNA: B1 RNA with C25G, A28U, G30A, G31U
DNA 1: CAATCTGAATTCCGGTCTCCC
DNA 2: TGGTGGCTACGACGGGATT
B29: CAAUCCC (DNA:RNA)
RNA: B16 RNA with G25C, C26A, G28U, G29C, U30C
DNA 1: CAATCTGAATTCCGGTCTCCC
DNA 2: TGGTGGCTACGACGGGATT
B30: CAUCCUU (DNA:RNA)
RNA: B1 RNA with G26A, G27U, A28C, U29C, G30U, G31U
DNA 1: CAATCTGAATTCCGGTCTCCC
DNA 2: TGGTGGCTACGACGGGATT
B31: CUGGCAU (DNA:RNA)
RNA: B1 RNA with G26U, A28G, U29C, G30A, G31U
DNA 1: CAATCTGAATTCCGGTCTCCC
DNA 2: TGGTGGCTACGACGGGATT

The binders below were run against T1, RBFOX1 RRM (assay: EMSA; HiTS-Eq, 1 nM pool, 10 min; buffer printed only for the single-RNA assays: 10 mM Tris pH 7.5, 150 mM NaCl, 3.4 mM EDTA, 0.001% NP-40, 30 C). Details: tags: His6 N-terminal (pET28a); label: 5' 32P.
Summary of the method: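 A pool of RNA with 7 randomized nucleotides, 5′-radiolabelled and with DNA-annealed flanks, was equilibrated at 1 nM for 10 min in 50 µL with purified RbFox RRM, wild type or mutant, across increasing protein concentrations. Free RNA was separated by 8% native PAGE, excised, reverse-transcribed, barcoded by PCR and sequenced. Relative association constants were obtained from read-count changes of each RNA species versus the control reaction and normalised to the cognate motif.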

Binder | binding signal
B1 | 0.0169 KA relative to UGCAUGU
B2 | 0.00643 KA relative to UGCAUGU
B3 | 0.00444 KA relative to UGCAUGU
B4 | 0.00344 KA relative to UGCAUGU
B5 | 0.0057 KA relative to UGCAUGU
B6 | 0.01 KA relative to UGCAUGU
B7 | 0.000796 KA relative to UGCAUGU
B8 | 0.0117 KA relative to UGCAUGU
B9 | 0.0103 KA relative to UGCAUGU
B10 | 0.0167 KA relative to UGCAUGU
B11 | 0.0194 KA relative to UGCAUGU
B12 | 0.00427 KA relative to UGCAUGU
B13 | 0.00961 KA relative to UGCAUGU
B14 | 0.00461 KA relative to UGCAUGU
B15 | 0.00598 KA relative to UGCAUGU
B16 | 0.0095 KA relative to UGCAUGU

Binder | binding signal
B17 | 0.0205 KA relative to UGCAUGU
B18 | 0.00722 KA relative to UGCAUGU
B19 | 0.00475 KA relative to UGCAUGU
B20 | 0.0246 KA relative to UGCAUGU
B21 | 0.00472 KA relative to UGCAUGU
B22 | 0.0084 KA relative to UGCAUGU
B23 | 0.000125 KA relative to UGCAUGU
B24 | 0.00374 KA relative to UGCAUGU
B25 | 0.0183 KA relative to UGCAUGU
B26 | 0.00843 KA relative to UGCAUGU
B27 | 0.0058 KA relative to UGCAUGU
B28 | 0.0147 KA relative to UGCAUGU
B29 | 0.00091 KA relative to UGCAUGU
B30 | 0.00199 KA relative to UGCAUGU
B31 | 0.0184 KA relative to UGCAUGU

From paper PMC9911399, “Two distinct binding modes provide the RNA-binding protein RbFox with extraordinary sequence specificity”
